Values joined by “and” are separate entries in the source; they are usually repeats but may differ in a detail not shown here. Equal values may be shown once. About 5,800 (2.1%) of roughly 270,000 compounds were called active. The inconclusive results got no clear call from the source; some entries with a clear call stand among them for comparison. Calls follow the shape of the dose curve; as a rule, active = well fitted inhibition curve with a large enough effect; inconclusive = small, poorly fitted or top-dose-only effect; inactive = flat fitted curve, though single readings scatter. Potencies beside an inconclusive call are fits to weak or partial responses and may not hold up.
target: Microtubule-associated protein tau (Homo sapiens) (UniProt P10636); assay: qHTS for Inhibitors of Tau Fibril Formation, Thioflavin T Binding; conditions: recombinant tau K18 P301L (four-repeat tau fragment), heparin-induced fibrillization, ThT fluorescence; series mostly up to 57.4 µM; also: nearly all actives have a fitted effect of over 55% in size
Summary of the method: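 Aggregation was driven by heparin (20 uM final) acting on recombinant tau […] bearing P301L in 100 mM sodium acetate pH 7; fibrils were detected with Thioflavin T.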
Potency is read from the fitted curve at half-maximal effect; tags tell the direction and shape of the fitted curve.

Sequence of UniProt P10636 (P10636 whole entry, looked up, the tested form may be a part): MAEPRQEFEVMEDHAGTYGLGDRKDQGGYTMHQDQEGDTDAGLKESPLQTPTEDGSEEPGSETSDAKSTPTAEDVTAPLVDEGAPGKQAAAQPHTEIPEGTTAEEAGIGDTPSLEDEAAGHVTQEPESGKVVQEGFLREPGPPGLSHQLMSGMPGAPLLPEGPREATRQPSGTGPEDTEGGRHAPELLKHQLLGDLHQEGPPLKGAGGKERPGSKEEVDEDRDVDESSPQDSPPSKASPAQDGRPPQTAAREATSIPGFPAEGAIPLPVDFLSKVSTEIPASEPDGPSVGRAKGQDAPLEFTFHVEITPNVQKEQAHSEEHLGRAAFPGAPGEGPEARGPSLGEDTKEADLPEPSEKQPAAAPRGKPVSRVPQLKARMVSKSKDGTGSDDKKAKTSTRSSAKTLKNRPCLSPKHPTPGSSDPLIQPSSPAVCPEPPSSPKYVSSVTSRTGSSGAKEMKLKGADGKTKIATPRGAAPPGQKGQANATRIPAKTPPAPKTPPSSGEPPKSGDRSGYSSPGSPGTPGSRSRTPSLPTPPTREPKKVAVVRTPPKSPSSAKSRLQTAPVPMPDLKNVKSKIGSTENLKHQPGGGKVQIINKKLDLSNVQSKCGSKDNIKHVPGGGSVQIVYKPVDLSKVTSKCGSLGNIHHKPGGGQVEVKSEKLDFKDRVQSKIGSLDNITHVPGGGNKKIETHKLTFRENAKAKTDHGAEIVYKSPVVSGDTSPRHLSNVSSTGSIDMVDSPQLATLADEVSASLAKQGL

SMILES | Potency
COC(=O)c1cc(OC)c(OC)cc1NC(=O)CC1CCCCC1 | inconclusive: 25.1 µM [inhibitor, single point]
CCOC(=O)/C(C#N)=C/C=C1/C=CC=CN1C | inconclusive: 25.1 µM [inhibitor, partial curve]
COc1ccc(CCNC(=O)Cn2cnc3c(nnn3Cc3ccccc3F)c2=O)cc1OC | inactive
CN(C)c1ccc(C=NCCC2(c3ccccc3)CCOC(C)(C)C2)cc1 (stereo not drawn) | inconclusive: 20 µM [inhibitor, partial curve]
Cc1ccn(-c2cccc(-n3ccc(C)n3)n2)n1 | inconclusive: 14.1 µM [inhibitor, single point]
COc1cc(/C=C2\SC(c3ccc(C)cc3)=NC2=O)ccc1O | active: 14.1 µM
Cc1ccc(CSc2nc3ccc(NC(=O)C(C)C)cc3s2)cc1 | inactive
CC(C)N(C(=O)Nc1ccc2nccnc2c1)C(C)C | inconclusive: 25.1 µM [inhibitor, partial curve]
CCOC(=O)c1cc(-c2ccccc2)sc1NC(=O)c1ccc(OC)c(OC)c1 | inconclusive: 20 µM [inhibitor, partial curve]
CN1c2ccccc2-c2nc(SCC(=O)Nc3ccccc3C(F)(F)F)ncc2S1(=O)=O | inconclusive: 25.1 µM [inhibitor, single point]
CCOC(=O)CCCCC(=O)c1[nH]c(=O)[nH]c1CSc1nc(-c2ccccc2)c(C#N)c(=O)[nH]1 | inconclusive: 20 µM [inhibitor, single point]
CCOc1ccc(N2C(=O)CC(SC(=NC)Nc3ccc(F)cc3)C2=O)cc1 (stereo not drawn) | inactive
C[C@@H]1CC=C[C@H]2[C@H]1C(=O)N(Cc1ccccc1)[C@H]2c1ccc(/C=C/c2ccccc2)cc1F | inconclusive: 39.8 µM [inhibitor, single point]
OCCCc1nc2n(n1)C(c1cccs1)C=C(c1ccc(Br)cc1)N2 (stereo not drawn) | inconclusive: 39.8 µM [activator, single point]
O=C(Nc1ccc(N2CCOCC2)cc1)c1ccc([N+](=O)[O-])cc1 | active: 2.82 µM
O=S(=O)(CCNCc1cccs1)c1ccc(Cl)cc1 | inconclusive: 39.8 µM [inhibitor, single point]
CCN1/C(=C/c2ccc3cccc(C)c3[n+]2CC)Sc2ccccc21 | inconclusive: 20 µM [inhibitor, single point]
Cc1ccc(S(=O)(=O)N2CCCCC2)cc1C(=O)Nc1cccnc1 | inconclusive: 3.16 µM [inhibitor, single point]
COc1ccc2c(c1)-c1nc(NC(=O)c3cc(Cl)ccc3OC)sc1CC2 | inconclusive: 31.6 µM [inhibitor, partial curve, poor fit]
Cc1ccc(CN2CCCn3nc(C(=O)NCCc4ccc(Cl)cc4)cc3C2=O)cc1 | inactive
Cc1cc(OC(=O)c2cc(-c3ccc4c(c3)OCCO4)on2)ccc1Cl | inconclusive: 2.51 µM [inhibitor, full curve]
C/C(CC(=O)Nc1ccccn1)=N\NC(=O)c1ccc(C)cc1 | inconclusive: 14.1 µM [inhibitor, partial curve]
O=C(Nc1ccc(OC(F)F)cc1)Nc1cccc(C(F)(F)F)c1 | inactive

SMILES | Potency
O=C(Nc1ccc(CN2CCOCC2)cc1)c1ccc(-c2cc(Cl)ccc2Cl)o1 | inactive
COc1ccc(OC)c(NC(=O)c2c(NCc3ccc(C)o3)sc3c2CCC(C)C3)c1 (stereo not drawn) | inconclusive: 12.6 µM [inhibitor, partial curve]
C=CCNC(C(=O)Nc1cccc(OC)c1)c1ccccc1 (stereo not drawn) | inactive
O=C(O)c1cc(-c2ccco2)nc2cc3ccccc3cc12 | inconclusive: 22.4 µM [inhibitor, partial curve, poor fit]
O=C1/C(=C/c2cccc(Cl)c2)CSc2sccc21 | inactive
Cc1nc(CC(=O)Nc2cccc(C)c2C)cs1 | inconclusive: 25.1 µM [inhibitor, single point]
Nc1c(C(=O)Nc2ccccc2)sc2nc3c(c(-c4ccco4)c12)CCC3 | inactive
O=[N+]([O-])c1ccc(N2CCN(C(=S)Nc3ccc(F)cc3F)CC2)cc1 | inconclusive: 2.82 µM [inhibitor, partial curve]
CCn1c(SCC(=O)Nc2ccc3c(c2)oc2ccccc23)nnc1-c1ccc(N)cc1 | inconclusive: 12.6 µM [inhibitor, partial curve]
COc1ccccc1C(=O)NNC(=S)NC(=O)c1cc(OC)c(OC)c(OC)c1 | inconclusive: 15.8 µM [inhibitor, partial curve]
Cc1ccc(CSCC(=O)N2CCN(c3ccc(F)cc3)CC2)cc1 | inconclusive: 14.1 µM [inhibitor, partial curve] and inconclusive: 22.4 µM [inhibitor, partial curve]
COc1ccc2c(c1)-c1c(ssc1=S)C(C)(C)N2S(=O)(=O)c1ccc(C)cc1 | inactive
COCCCNC(=O)c1c(NC(=O)c2nc(S(C)(=O)=O)ncc2Cl)sc2c1CCCC2 | active: 12.6 µM
O=c1[nH]c(Nc2ccc(F)cc2)cc2ccccc12 | inconclusive: 17.8 µM [inhibitor, partial curve]
COc1cccc(Cn2c(-c3nonc3N)nc3ccccc32)c1 | inactive
Cc1ccc(C(=O)Nc2ccc(-c3nc4ccccc4s3)c(O)c2)c(C)c1 | inconclusive: 1.26 µM [inhibitor, full curve]
Cc1ccc(NC(=S)NCc2ccc3c(c2)OCO3)cc1 | inactive
COC(=O)c1ccc(OCC(O)Cn2cnc3cc(C)c(C)cc32)cc1 (stereo not drawn) | inconclusive: 7.94 µM [inhibitor, partial curve]
C=C1C(=O)O[C@@H]2C3OC3(C)CC/C=C(\C)CC[C@@H]12 (stereo partly drawn) | inconclusive: 31.6 µM [inhibitor, single point]
Cc1ccc(-n2nc(C)c(C3C(C#N)=C(N)OC4=C3C(=O)CC(C)(C)C4)c2Cl)cc1 (stereo not drawn) | inconclusive: 17.8 µM [inhibitor, partial curve]
CCOC(=O)c1ccc(NC(=O)C(C)Sc2nc(O)c(-c3ccccc3)c(=O)[nH]2)cc1 (stereo not drawn) | inconclusive: 35.5 µM [inhibitor, single point]
COc1ccc(N2CCN(C(=O)c3cn(C4CCCC4)c(=O)c4c3c3ccccc3n4C)CC2)cc1 | inconclusive: 31.6 µM [inhibitor, single point]
CCCc1nc2oc3cc(OC)ccc3c(=O)c2c(=O)n1CCc1ccccc1 | inconclusive: 39.8 µM [inhibitor, single point]

SMILES | Potency
Cc1cc(C)cc(NC(=O)/C=C/c2ccc([N+](=O)[O-])s2)c1 | inconclusive: 3.16 µM [inhibitor, full curve]
Cc1cc(C)cc(C(=O)N(Cc2nc(-c3ccc(Cl)cc3)no2)C(C)C)c1 | inactive
CCOc1ccccc1NC(=O)CN1C(=O)CC(c2ccco2)Sc2ccccc21 (stereo not drawn) | inactive
Cn1c(SCC(=O)c2cc3ccccc3o2)nnc1-c1ccccc1 | inconclusive: 10 µM [inhibitor, partial curve]
N#CC(=C1CCCC1)c1nc(-c2ccccc2O)cs1 | inconclusive: 14.1 µM [inhibitor, partial curve]
COc1ccc(-c2[nH]c(-c3ccc(C)cc3)nc2SCC(=O)NC2CCCC2)cc1 | inconclusive: 35.5 µM [inhibitor, single point]
COC(=O)c1ccc(-n2cc(-c3ccc(OC)cc3)[nH]c2=S)cc1 | inconclusive: 12.6 µM [inhibitor, partial curve]
O=C(N/N=C/c1ccc([N+](=O)[O-])o1)c1ccc(NS(=O)(=O)c2cccs2)cc1 | inconclusive: 12.6 µM [inhibitor, partial curve]
Cc1ccc(OCc2nc(-c3cccnc3)no2)cc1C | inconclusive: 25.1 µM [inhibitor, single point]
Cc1onc(-c2c(Cl)cccc2Cl)c1-c1nnc(-c2ccc(Cl)cc2)o1 | inactive
CCCCCC1CC(CC#CCN2CCOCC2)C(=O)O1 (stereo not drawn) | inactive
COc1ccc(C2CC(c3ccc4ccccc4c3)=NN2C(=O)CNC2CCCCC2)cc1 (stereo not drawn) | inconclusive: 28.2 µM [inhibitor, single point]
O=C1C2=CC[C@H]3C(=O)N(c4cccc(Oc5ccccc5)c4)C(=O)[C@@H]3[C@@H]2[C@H](O)[C@@H]2O[C@H]12 | inconclusive: 10 µM [inhibitor, single point]
Cc1ccc(C(=O)OCCN2CCN(c3ncc(C(F)(F)F)cc3Cl)CC2)cc1 | inconclusive: 7.94 µM [inhibitor, partial curve, poor fit]
CC(=O)Nc1ccc(-c2csc(Nc3ccc(Cl)cn3)n2)cc1 | inconclusive: 4.47 µM [inhibitor, partial curve]
CC(C)CN=Cc1c(O)c([N+](=O)[O-])cc2oc3c(c12)CCCC3 | active: 4.47 µM
O=C(Nc1ccccc1)Nc1ccc(Br)c(Cl)c1 | inconclusive: 10 µM [activator, partial curve]
CN1CCN(CCCN2c3ccccc3Sc3ccccc32)CC1 | inactive
Cc1ccc(NC(=O)c2ncn(-c3ccccc3)n2)cc1Cl | inconclusive: 0.708 µM [inhibitor, full curve]
Cc1cc(=O)oc(C)c1C(=O)OCC(=O)c1ccc2ccccc2c1 | inconclusive: 14.1 µM [inhibitor, partial curve]
COc1ccc(Cl)cc1C(=O)CSc1nnnn1C1CCCC1 | inactive
CCC(=O)Nc1cc(NC(=O)CSc2ncc(-c3ccc(F)cc3)n2Cc2ccco2)ccc1C | inconclusive: 12.6 µM [inhibitor, partial curve]

Reference: PubChem BioAssay AID1460 (National Center for Advancing Translational Sciences (NCATS), 2008)
